The list shows a part of the results. Shown are side measurements of this screen, not its main read-out; they come without a call. Compounds called inactive in the main read-out are mostly missing here.

The assay is described as follows: up-regulation of insulin promoter-GFP reporter – imaging, high-content screening, mouse beta cells (AID 1625).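 Note: total cells summed across four imaged fields per well.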 To be noted: MIN6 insulin promoter-GFP reporter, measured here: cytotoxicity, nuclei count, at 5 µM.
Turning to `COc1ccc(C(=O)N(CN2CCCC2=O)c2ccc(C)cc2)cc1`, the cell count was determined as 1360 cells.

Molecule `CCCN1CCc2c(sc(NC(=S)NC(=O)c3ccccc3)c2C#N)C1` showed a cell count of 1180 cells.

Turning to `COc1cc(OC)cc(C(=O)Nc2cccc(C(C)=O)c2)c1`, the cell count worked out at 1380 cells.

For the molecule `CCn1c(Cn2nnc(-c3ccccc3)n2)nnc1SCC(=O)Nc1ccc(C(C)=O)cc1`, the cell count amounted to 1370 cells.

`Cc1nc(Nc2ccc(F)cc2)[nH]c(=O)c1CCC(C)C` yielded a cell count of 494 cells.

As to `CCOc1ccc(N(CC(=O)Nc2ccc(C)c(C)c2)S(=O)(=O)c2c(C)noc2C)cc1`, the cell count is 374 cells.

Consider `C[C@@]1([C@@H](NC(=O)c2cccs2)c2ccc(-c3ccccc3)cc2)C[C@H]1C1CCCCC1`, for which the cell count is 384 cells.

As to `Cc1ccc(NC(=O)CCl)c(C)c1`, the cell count was 1040 cells.

Turning to `Cc1c(OCc2ccccc2)cccc1OCc1ccccc1`, the cell count amounted to 398 cells.

With `O=C1CN(C(=O)COc2ncnc3ccccc23)c2ccccc2N1`, the cell count came out at 830 cells.

Regarding `Nc1nonc1C(=O)NCCNCc1cc(Br)ccc1OCc1ccccc1F`, the cell count was found to be 467 cells.

`NC(=O)c1cc2c3ccccc3ccn2c1-c1ccccc1` had a cell count of 436 cells.

Molecule `c1ccc(-c2cn(-c3ccccc3)c3[n+]2CCCS3)cc1` came in with a cell count of 450 cells.

`CC(=O)n1cc(N(C(=O)CCl)c2ccc([N+](=O)[O-])cc2)c2ccccc21` returned a cell count of 497 cells.

`Cc1ccc(/C(C#N)=C\c2ccc(N3CCOCC3)o2)cc1` came in with a cell count of 1650 cells.

As for `CCC(C(=O)OCC(=O)Nc1cccc(S(=O)(=O)NC2=NCCCCC2)c1)c1ccccc1` (configuration not stated), the cell count is 1200 cells.

`CCCC1C2CN(C(C)C)CC=C2C(C#N)=C(N)C1(C#N)C#N` (configuration not stated) returned a cell count of 1370 cells.

`CC1=CC(=O)c2c(O)ccc(O)c2C1=O` yielded a cell count of 302 cells.

The molecule `CCCCCCCCCC[n+]1cccc2c3ccccc3ccc21` showed a cell count of 441 cells.

With `CCCCCCCC[n+]1cccc2c3ccccc3ccc21`, the cell count amounted to 391 cells.

As for `COc1cc(N2CCCC2)c(OC)cc1/C=c1/sc2nc3ccccc3n2c1=O`, the cell count was 1380 cells.

The molecule `CCCCN1C(=O)/C(=C/C=C2\N(C)c3ccccc3C2(C)C)SC1=S` yielded a cell count of 1120 cells.

These data come from PubChem BioAssay AID1625 (Sanford-Burnham Center for Chemical Genomics, 2009).
